# Measurements: PubChem BioAssay AID540317 (National Center for Advancing Translational Sciences (NCATS), 2011)
# Out of some 390,000 compounds screened, about 2,200 (0.56%) were called active. This list was built around the results that the source calls inconclusive (neither active nor inactive); the mix of calls is not that of the screen. Calls come from the whole dose curve; as a rule, active = well fitted inhibition curve with a large enough effect; inconclusive = small, poorly fitted or top-dose-only effect; inactive = no such curve, though single readings can be large or run the other way. Potencies beside an inconclusive call are fits to weak or partial responses and may not hold up.
# Target: Chromobox protein homolog 1 (Homo sapiens) (UniProt P83916)
# Experiment: HTS for Inhibitors of HP1-beta Chromodomain Interactions with Methylated Histone Tails; note: nearly all actives have a fitted effect of over 70% in size
# Conditions: AlphaScreen HP1-beta / biotin-H3K9me3 peptide binding; series mostly up to 114 µM; activity change, negative = inhibition: at the top concentration
# Method in brief: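 AlphaScreen: HP1-beta (50 nM) preformed 30 min with biotin-H3(1-18)K9me3 peptide (50 nM) in PBS pH 7.4, 0.01% Tween-20. Compound added for 30 min at RT, then streptavidin donor/nickel chelate acceptor beads (10 ug/mL) for 30 min.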
# Potency is the fitted concentration of half-maximal effect; tags give direction and shape of the fitted curve.
# UniProt P83916, sequence (P83916 whole entry, looked up): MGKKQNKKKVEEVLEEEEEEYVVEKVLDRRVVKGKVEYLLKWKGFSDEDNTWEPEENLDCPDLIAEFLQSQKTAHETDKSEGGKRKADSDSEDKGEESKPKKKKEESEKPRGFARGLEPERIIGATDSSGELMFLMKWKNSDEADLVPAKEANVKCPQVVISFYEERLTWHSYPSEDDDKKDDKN
Structure (SMILES),Potency,"activity change, negative = inhibition"
CN(N=O)c1cc(O)ccc1O,"inconclusive: 3.55 µM [inhibitor, full curve, poor fit]",
COc1ccccc1CN1CCN(Cc2ccc(Cl)cc2)CC1,"inconclusive: 14.1 µM [inhibitor, partial curve, poor fit]",
CCOC(=O)c1sc(/N=C/c2c(O)n(-c3cccc(C)c3)c(=O)[nH]c2=O)c(C#N)c1C,"inconclusive: 25.1 µM [inhibitor, partial curve, poor fit]",
Cc1ccc(OCC(=O)N2CCN(Cc3ccc4c(c3)OCO4)CC2)cc1,"inconclusive: 15.8 µM [inhibitor, full curve, poor fit]",
S=c1[nH]nc(-c2ccn[nH]2)n1-c1ccccc1Cl,"inconclusive: 89.1 µM [inhibitor, single point]",
COc1ccc(CCNc2nccn(-c3ccc(C)c(C)c3)c2=O)cc1OC,"inconclusive: 50.1 µM [inhibitor, partial curve]",
O=C(NC1(C(F)(F)F)Oc2ccc(Cl)cc2O1)N1CCC2(CC1)OCCO2 (configuration not stated),,inactive: -4.67%
Clc1ccc(OCC#CCN2CCCCCC2)cc1,"inconclusive: 15.8 µM [inhibitor, full curve]",
CSc1ccc(C(=O)C2CCCN(Cc3cccnc3)C2)cc1 (configuration not stated),,inactive: -25.1%
CC[N+](C)(CC)CCCOC(=O)C(O)(c1ccccc1)C1CCCCC1 (configuration not stated),"inconclusive: 89.1 µM [inhibitor, single point]",
COc1ccc(CN2CCCC(C(=O)c3cccc(Cl)c3)C2)cc1 (configuration not stated),,inactive: 57.9%
O=C(Cc1ccccc1)N1CCN(Cc2cccc(Cl)c2)CC1,"inconclusive: 56.2 µM [inhibitor, single point]",
O=C(c1ccc(F)cc1)N1CCC(N2CCCCCC2)CC1,"inconclusive: 89.1 µM [inhibitor, single point]",
O=C(c1cccc(Cl)c1)C1CCCN(Cc2cccc3cnccc23)C1 (configuration not stated),"inconclusive: 44.7 µM [inhibitor, partial curve]",
COC(=O)N(c1ccc(OC)cc1)P1(=S)OCCC(C)O1 (configuration not stated),"inconclusive: 15.8 µM [inhibitor, full curve, poor fit]",
COc1cc(C)c(CNCCc2c[nH]c3ccccc23)cc1C,"inconclusive: 17.8 µM [inhibitor, full curve]",
Clc1ccc(OCC#CCN2CCCC2)cc1,"inconclusive: 31.6 µM [inhibitor, single point]",
CC(C)C(OC(=O)c1ccco1)C(=O)NCc1ccco1 (configuration not stated),"inconclusive: 39.8 µM [inhibitor, single point]",
O=C1OCCN1P(=O)(c1ccccc1)c1ccccc1,,inactive: 29.2%
O=C(C1c2ccccc2C(=O)N2CCc3ccccc3C12)N1CCC2(CC1)OCCO2 (configuration not stated),,inactive: 23.1%
COc1ccccc1N1CCN(Cc2ccccc2F)CC1,"inconclusive: 50.1 µM [inhibitor, partial curve, poor fit]",
CNCCc1c[nH]c2ccc(O)cc12,"inconclusive: 4.47 µM [inhibitor, partial curve, poor fit]",
Oc1c(Cl)cccc1Cc1cc(Cl)cc(Cl)c1O,"inconclusive: 25.1 µM [inhibitor, single point]",

Structure (SMILES),Potency,"activity change, negative = inhibition"
CCN1/C(=C\C=C\C2=[N+](CC)c3ccccc3C2(C)C)C(C)(C)c2ccccc21,"inconclusive: 28.2 µM [inhibitor, partial curve]",
COc1ccc(OCC#CCN2CCNCC2)cc1,"inconclusive: 15.8 µM [inhibitor, full curve]",
C[C@@H]1NCCc2cc(O)c(O)cc21,"inconclusive: 10 µM [inhibitor, full curve, poor fit]",
Oc1ccc(/C=N/NP(=S)(c2ccccc2)c2ccccc2)cc1O,"inconclusive: 56.2 µM [inhibitor, partial curve]",
Fc1ccc(CNCCc2ccccc2)cc1,"inconclusive: 79.4 µM [inhibitor, single point]",
COc1ccc(-c2ccc3n2Cc2cnnn2-c2ccccc2-3)cc1,"inconclusive: 44.7 µM [inhibitor, partial curve]",
O=C(O)Cn1cc(/C=C2\C(=O)NC(=O)N(c3ccc(Br)cc3)C2=O)c2ccccc21,,inactive: 9.01% [at 57 µM]
COc1ccc(Nc2c(-c3cc(Br)ccc3O)nc3ncccn23)cc1OC,"inconclusive: 15.8 µM [inhibitor, full curve, poor fit]",
Oc1ccccc1O,"inconclusive: 70.8 µM [inhibitor, single point]",
Cc1cc(N2CCCC2)ccc1C=C(C#N)C#N,,inactive: 40%
CCOc1cc(C=C2C(=O)NC(=S)NC2=O)ccc1O,"inconclusive: 14.1 µM [inhibitor, partial curve, poor fit]",
O=C1NC(=O)N(Cc2ccc(F)cc2)C(=O)/C1=C\c1ccc([N+](=O)[O-])s1,"inconclusive: 17.8 µM [inhibitor, full curve]",
O=C(CN1CCCC1)Nc1ccc(Cl)cc1C(=O)c1ccccc1,"inconclusive: 35.5 µM [inhibitor, partial curve]",
CN(C)c1cccc2c(C#N)ccc(N(C)C)c12,"inconclusive: 39.8 µM [inhibitor, full curve]",
COc1ccc(OC)c(C2=NOC(C(=O)N3CCC4(CC3)OCCO4)C2)c1 (configuration not stated),,inactive: -1.36%
CC/C(CC(c1ccccc1)c1c(O)c2ccccc2oc1=O)=N\NC(N)=S (configuration not stated),"inconclusive: 89.1 µM [inhibitor, single point]",
S=c1[nH]c2cc(Br)cnc2[nH]1,"inconclusive: 63.1 µM [inhibitor, single point]",
CN1CCN(c2ccc(/C=C3\C(=O)NC(=S)N(c4cccc(Br)c4)C3=O)o2)CC1,"inconclusive: 56.2 µM [inhibitor, partial curve, poor fit]",
Nc1ccc2cc(Br)ccc2c1,"inconclusive: 44.7 µM [inhibitor, partial curve]",
COc1ccccc1-n1c(Cc2ccccc2)nc2ccccc2c1=O,"inconclusive: 79.4 µM [inhibitor, single point]",
Cc1ccc(OCC(=O)N2CCN(C3CCC(c4ccccc4)CC3)CC2)cc1 (configuration not stated),"inconclusive: 31.6 µM [inhibitor, partial curve]",
COc1ccc(NC(=O)c2ccco2)cc1NC(=O)COc1cccc(C)c1C,"inconclusive: 89.1 µM [inhibitor, single point]",
COc1ccc(CCNCc2c(OC)ccc3ccccc23)cc1,"inconclusive: 28.2 µM [inhibitor, partial curve]",

Structure (SMILES),Potency,"activity change, negative = inhibition"
COc1ccc(OCC(=O)N2CCN(Cc3nc4cc([N+](=O)[O-])ccc4n3C)CC2)cc1,,inactive: -5.94%
Cc1ccc(N/N=C/C=C/c2ccco2)cc1,"inconclusive: 79.4 µM [inhibitor, single point]",
COc1ccc(OCC(=O)N2CCN(Cc3cccc(OC)c3OC)CC2)cc1,"inconclusive: 17.8 µM [inhibitor, full curve, poor fit]",
C#C[C@]1(O)CC[C@H]2[C@@H]3CCC4=Cc5nc6nc7ccccc7n6cc5C[C@]4(C)[C@H]3CC[C@@]21C,,inactive: 40.1%
CCOC(=O)c1cccc(NC(=O)c2c(O)[nH]c(=O)[nH]c2=O)c1,"inconclusive: 70.8 µM [inhibitor, partial curve]",
CCOC(=O)c1c(C)n(Cc2ccccc2)c2ccc(OCC(O)Cn3nc(C)cc3C)cc12 (configuration not stated),"inconclusive: 89.1 µM [inhibitor, partial curve, poor fit]",
CN1CCN(c2ccc([N+](=O)[O-])c3no[n+]([O-])c23)CC1,"inconclusive: 56.2 µM [inhibitor, single point]",
C=CCOC(=O)c1ccccc1C(=O)OCC=C,,inactive: 39.4%
CCOc1cc(N2CCOCC2)c(OCC)cc1NC(=O)C1=NN(c2cccc(C)c2)C(=O)CC1,"inconclusive: 15.8 µM [inhibitor, full curve]",
COc1cccc(CCNCc2c(F)cccc2F)c1,"inconclusive: 22.4 µM [inhibitor, full curve]",
O=C1NC(=O)N(c2ccc(Cl)cc2)C(=O)/C1=C\c1ccc(Sc2nc3ccccc3[nH]2)o1,active: 39.8 µM,
O=c1c2ccccc2nc(Cc2cccc([N+](=O)[O-])c2)n1-c1ccc(O)cc1,"inconclusive: 89.1 µM [inhibitor, partial curve, poor fit]",
O=C1NC(=O)C(=Cc2ccc(-c3cc(Cl)ccc3[N+](=O)[O-])o2)C(=O)N1,"inconclusive: 17.8 µM [inhibitor, full curve]",
CCOc1ccccc1N1CCN(Cc2cccc(OC)c2OC)CC1,"inconclusive: 56.2 µM [inhibitor, partial curve]",
O=[N+]([O-])c1ccc(N2CCCCC2)c2ncccc12,"inconclusive: 44.7 µM [inhibitor, partial curve, poor fit]",
CC(=O)N1CCN(c2ccc(OC[C@H]3CO[C@](Cn4ccnc4)(c4ccc(Cl)cc4Cl)O3)cc2)CC1,"inconclusive: 25.1 µM [inhibitor, full curve]",
Cc1cc(C)cc(N2C(=O)/C(=C\c3ccc(N4CCN(C)CC4)o3)C(=O)NC2=S)c1,"inconclusive: 39.8 µM [inhibitor, partial curve]",
Cc1ccc(N=Nc2cc(C)ccc2N)cc1,"inconclusive: 14.1 µM [inhibitor, full curve]",
COc1cc2c3cc1Oc1cc(ccc1O)C[C@@H]1c4c(cc(OC)c(O)c4Oc4ccc(cc4)C[C@H]3N(C)CC2)CCN1C,,inactive: -6.23%
Clc1cccc(CNCCc2ccc3c(c2)OCO3)c1,"inconclusive: 50.1 µM [inhibitor, partial curve, poor fit]",
O=C(COc1ccc(Br)cc1)N1CCN(Cc2ccc3c(c2)OCO3)CC1,"inconclusive: 25.1 µM [inhibitor, full curve]",
